Results reported in the supplement of paper PMC8728848.
The list shows a part of the results.

Columns and labels:
Test in all cases: glycan array binding signal (z-score within array); higher = stronger binding
Conditions in all cases: glycan notation: IUPAC condensed, linker removed
[1] = molecular target: Fuc(a1-2)Gal(b1-4)GlcNAc(b1-3)Gal(b1-4)GlcNAc(b1-2)Man(a1-3)[Fuc(a1-2)Gal(b1-4)GlcNAc(b1-3)Gal(b1-4)GlcNAc(b1-2)Man(a1-6)]Man(b1-4)GlcNAc(b1-4)GlcNAc
In short: (§1)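 The binding signal is a Z-score computed within each array. Data were drawn from 3228 arrays in the Consortium for Functional Glycomics database, restricted to those with a known protein sequence. Scores were averaged over arrays of the same protein sequence at different concentrations or buffers, and over linkers, and negative values can be taken as non-binding.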

[2] = molecular target: Fuc(a1-2)Gal(b1-4)GlcNAc(b1-3)Gal(b1-4)GlcNAc(b1-3)Gal(b1-4)GlcNAc
In short: as §1

[3] = molecular target: Fuc(a1-2)Gal(b1-4)GlcNAc(b1-3)GalNAc
In short: as §1

[4] = molecular target: Fuc(a1-2)Gal(b1-4)GlcNAc(b1-3)[Fuc(a1-2)Gal(b1-4)GlcNAc(b1-6)]GalNAc
In short: as §1

[5] = molecular target: Fuc(a1-2)Gal(b1-4)GlcNAc(b1-3)[Fuc(a1-3)[Gal(b1-4)]GlcNAc(b1-6)]Gal(b1-4)Glc
In short: as §1

[6] = molecular target: Fuc(a1-2)Gal(b1-4)GlcNAc(b1-6)GalNAc
In short: as §1

[7] = molecular target: Fuc(a1-2)Gal(b1-4)GlcNAc6S
In short: as §1

[8] = molecular target: Fuc(a1-2)Gal(b1-4)[Fuc(a1-3)]GlcNAc
In short: as §1

[9] = molecular target: Fuc(a1-2)Gal(b1-4)[Fuc(a1-3)]GlcNAc(b1-2)Man(a1-3)[Fuc(a1-2)Gal(b1-4)[Fuc(a1-3)]GlcNAc(b1-2)Man(a1-6)]Man(b1-4)GlcNAc(b1-4)[Fuc(a1-6)]GlcNAc
In short: as §1

[10] = molecular target: Fuc(a1-2)Gal(b1-4)[Fuc(a1-3)]GlcNAc(b1-2)[Fuc(a1-2)Gal(b1-4)[Fuc(a1-3)]GlcNAc(b1-4)]Man(a1-3)[Fuc(a1-2)Gal(b1-4)[Fuc(a1-3)]GlcNAc(b1-2)Man(a1-6)]Man(b1-4)GlcNAc(b1-4)GlcNAc
In short: as §1

[11] = molecular target: Fuc(a1-2)Gal(b1-4)[Fuc(a1-3)]GlcNAc(b1-3)Gal(b1-4)[Fuc(a1-3)]GlcNAc
In short: as §1

[12] = molecular target: Fuc(a1-2)Gal(b1-4)[Fuc(a1-3)]GlcNAc(b1-3)Gal(b1-4)[Fuc(a1-3)]GlcNAc(b1-3)Gal(b1-4)[Fuc(a1-3)]GlcNAc
In short: as §1

[13] = molecular target: Fuc(a1-2)Gal(b1-4)[Fuc(a1-3)]GlcNAc(b1-3)GalNAc
In short: as §1

[14] = molecular target: Fuc(a1-2)Gal(b1-4)[Fuc(a1-3)]GlcNAc(b1-3)[Neu5Ac(a2-6)Gal(b1-4)GlcNAc(b1-6)]Gal(b1-4)Glc
In short: as §1

[15] = molecular target: Fuc(a1-2)Gal3S(b1-4)GlcNAc
In short: as §1

[16] = molecular target: Fuc(a1-2)Gal6S(b1-3)GlcNAc
In short: as §1

[17] = molecular target: Fuc(a1-2)Gal6S(b1-3)GlcNAc6S
In short: as §1

Fuc(a1-2)Gal6S(b1-4)Glc = molecular target: Fuc(a1-2)Gal6S(b1-4)Glc
In short: as §1

[18] = molecular target: Fuc(a1-2)Gal6S(b1-4)Glc6S
In short: as §1

Fuc(a1-2)[Gal(a1-3)]Gal = molecular target: Fuc(a1-2)[Gal(a1-3)]Gal
In short: as §1

[19] = molecular target: Fuc(a1-2)[Gal(a1-3)]Gal(b1-3)GalNAc
In short: as §1

[20] = molecular target: Fuc(a1-2)[Gal(a1-3)]Gal(b1-3)GalNAc(b1-3)Gal(a1-4)Gal(b1-4)Glc
In short: as §1

[21] = molecular target: Fuc(a1-2)[Gal(a1-3)]Gal(b1-3)GlcNAc
In short: as §1

[22] = molecular target: Fuc(a1-2)[Gal(a1-3)]Gal(b1-3)GlcNAc(b1-2)Man(a1-3)[Fuc(a1-2)[Gal(a1-3)]Gal(b1-3)GlcNAc(b1-2)Man(a1-6)]Man(b1-4)GlcNAc(b1-4)GlcNAc
In short: as §1

[23] = molecular target: Fuc(a1-2)[Gal(a1-3)]Gal(b1-3)GlcNAc(b1-2)Man(a1-3)[Fuc(a1-2)[Gal(a1-3)]Gal(b1-3)GlcNAc(b1-2)Man(a1-6)]Man(b1-4)GlcNAc(b1-4)[Fuc(a1-6)]GlcNAc
In short: as §1

[24] = molecular target: Fuc(a1-2)[Gal(a1-3)]Gal(b1-3)GlcNAc(b1-3)GalNAc
In short: as §1

[25] = molecular target: Fuc(a1-2)[Gal(a1-3)]Gal(b1-3)GlcNAc(b1-6)GalNAc
In short: as §1

[26] = molecular target: Fuc(a1-2)[Gal(a1-3)]Gal(b1-4)Glc
In short: as §1

[27] = molecular target: Fuc(a1-2)[Gal(a1-3)]Gal(b1-4)GlcNAc
In short: as §1

[28] = molecular target: Fuc(a1-2)[Gal(a1-3)]Gal(b1-4)GlcNAc(b1-2)Man
In short: as §1

[29] = molecular target: Fuc(a1-2)[Gal(a1-3)]Gal(b1-4)GlcNAc(b1-2)Man(a1-3)[Fuc(a1-2)[Gal(a1-3)]Gal(b1-4)GlcNAc(b1-2)Man(a1-6)]Man(b1-4)GlcNAc(b1-4)GlcNAc
In short: as §1

[30] = molecular target: Fuc(a1-2)[Gal(a1-3)]Gal(b1-4)GlcNAc(b1-2)Man(a1-3)[Fuc(a1-2)[Gal(a1-3)]Gal(b1-4)GlcNAc(b1-2)Man(a1-6)]Man(b1-4)GlcNAc(b1-4)[Fuc(a1-6)]GlcNAc
In short: as §1

[31] = molecular target: Fuc(a1-2)[Gal(a1-3)]Gal(b1-4)GlcNAc(b1-3)GalNAc
In short: as §1

[32] = molecular target: Fuc(a1-2)[Gal(a1-3)]Gal(b1-4)GlcNAc(b1-3)[Fuc(a1-2)[Gal(a1-3)]Gal(b1-4)GlcNAc(b1-6)]GalNAc
In short: as §1

[33] = molecular target: Fuc(a1-2)[Gal(a1-3)]Gal(b1-4)GlcNAc(b1-6)GalNAc
In short: as §1

[34] = molecular target: Fuc(a1-2)[Gal(a1-3)]Gal(b1-4)[Fuc(a1-3)]Glc
In short: as §1

[35] = molecular target: Fuc(a1-2)[Gal(a1-3)]Gal(b1-4)[Fuc(a1-3)]GlcNAc
In short: as §1

[36] = molecular target: Fuc(a1-2)[Gal(a1-3)]Gal(b1-4)[Fuc(a1-3)]GlcNAc(b1-3)GalNAc
In short: as §1

[37] = molecular target: Fuc(a1-2)[Gal(a1-4)]Gal(b1-4)GlcNAc
In short: as §1

[38] = molecular target: Fuc(a1-2)[GalNAc(a1-3)]Gal
In short: as §1

[39] = molecular target: Fuc(a1-2)[GalNAc(a1-3)]Gal(b1-3)GalNAc(a1-3)[Fuc(a1-2)]Gal(b1-4)GlcNAc
In short: as §1

[40] = molecular target: Fuc(a1-2)[GalNAc(a1-3)]Gal(b1-3)GalNAc(b1-3)Gal(a1-4)Gal(b1-4)Glc
In short: as §1

[41] = molecular target: Fuc(a1-2)[GalNAc(a1-3)]Gal(b1-3)GlcNAc
In short: as §1

[42] = molecular target: Fuc(a1-2)[GalNAc(a1-3)]Gal(b1-3)GlcNAc(b1-2)Man(a1-3)[Fuc(a1-2)[GalNAc(a1-3)]Gal(b1-3)GlcNAc(b1-2)Man(a1-6)]Man(b1-4)GlcNAc(b1-4)GlcNAc
In short: as §1

[43] = molecular target: Fuc(a1-2)[GalNAc(a1-3)]Gal(b1-3)GlcNAc(b1-2)Man(a1-3)[Fuc(a1-2)[GalNAc(a1-3)]Gal(b1-3)GlcNAc(b1-2)Man(a1-6)]Man(b1-4)GlcNAc(b1-4)[Fuc(a1-6)]GlcNAc
In short: as §1

B1: LgFlo1 (Saccharomyces pastorianus), B3IUA8 (protein)
chain: SGSTQACLPVGSRKNGMNVNFYKYSLQDSTTYSDPQYMAYKYSDTKKLGSVSGQTHLSIYYGPNTAFWNTASWSSDLFGFYTTPTNVTVEMTGYFLPPQTGSYTFKFATVDDSAILSVGGSIAFECCAQEQPPITSTDFTINGIKPWDAATPTDIKGSTYMYAGYYYPIKIVYSNAKALARLPVSVVLPDGTEVNDDFEGYVYSFDDDLSQSNCTIPDPSKHTTS
[1]
  glycan array binding signal (z-score): -0.274
[2]
  glycan array binding signal (z-score): -0.091
[3]
  glycan array binding signal (z-score): -0.305
[4]
  glycan array binding signal (z-score): -0.168
[5]
  glycan array binding signal (z-score): 0.07
[6]
  glycan array binding signal (z-score): -0.239
[7]
  glycan array binding signal (z-score): 0.383
[8]
  glycan array binding signal (z-score): -0.276
[9]
  glycan array binding signal (z-score): 1.1
[10]
  glycan array binding signal (z-score): 0.067
[11]
  glycan array binding signal (z-score): -0.242
[12]
  glycan array binding signal (z-score): -0.263
[13]
  glycan array binding signal (z-score): 0.006
[14]
  glycan array binding signal (z-score): -0.325
[15]
  glycan array binding signal (z-score): -0.283
[16]
  glycan array binding signal (z-score): -0.374
[17]
  glycan array binding signal (z-score): 1.44
Fuc(a1-2)Gal6S(b1-4)Glc
  glycan array binding signal (z-score): -0.238
[18]
  glycan array binding signal (z-score): -0.317
Fuc(a1-2)[Gal(a1-3)]Gal
  glycan array binding signal (z-score): -0.403
[19]
  glycan array binding signal (z-score): -0.089
[20]
  glycan array binding signal (z-score): -0.417
[21]
  glycan array binding signal (z-score): 0.172
[22]
  glycan array binding signal (z-score): -0.269
[23]
  glycan array binding signal (z-score): -0.015
[24]
  glycan array binding signal (z-score): 11.9
[25]
  glycan array binding signal (z-score): -0.32
[26]
  glycan array binding signal (z-score): -0.115
[27]
  glycan array binding signal (z-score): -0.213
[28]
  glycan array binding signal (z-score): -0.175
[29]
  glycan array binding signal (z-score): 0.01
[30]
  glycan array binding signal (z-score): 11.9
[31]
  glycan array binding signal (z-score): -0.074
[32]
  glycan array binding signal (z-score): 2.44
[33]
  glycan array binding signal (z-score): -0.087
[34]
  glycan array binding signal (z-score): -0.326
[35]
  glycan array binding signal (z-score): -0.173
[36]
  glycan array binding signal (z-score): -0.045
[37]
  glycan array binding signal (z-score): -0.306
[38]
  glycan array binding signal (z-score): -0.199
[39]
  glycan array binding signal (z-score): 0.035
[40]
  glycan array binding signal (z-score): -0.256
[41]
  glycan array binding signal (z-score): 0.577
[42]
  glycan array binding signal (z-score): -0.322
[43]
  glycan array binding signal (z-score): 0.861
